# Assay results from the supplement of paper PMC8728848.
# This is one part of the list.
# How the values were obtained:
# Assay in all cases: glycan array binding signal (z-score within array); higher = stronger binding
# Settings in all cases: glycan notation: IUPAC condensed, linker removed
# [1] = molecular target: Neu5Ac(a2-3)Gal(b1-4)GlcNAc(b1-2)Man(a1-3)[Neu5Ac(a2-6)Gal(b1-4)GlcNAc(b1-2)Man(a1-6)]Man(b1-4)GlcNAc(b1-4)GlcNAc
# Method in brief: (§1)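 Glycan array data were curated from 3228 arrays in the Consortium for Functional Glycomics database and kept only where the protein sequence was available. Glycan names were converted to IUPAC-condensed notation, and columns mapping to the same glycan were averaged. The binding signal is a within-array Z-score, averaged across arrays of the same protein sequence at different concentrations or buffers and across linkers. Negative Z-scores can be read as non-binding.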
# [2] = molecular target: Neu5Ac(a2-3)Gal(b1-4)GlcNAc(b1-2)[Neu5Ac(a2-3)Gal(b1-4)GlcNAc(b1-4)]Man(a1-3)[GlcNAc(b1-4)][Neu5Ac(a2-3)Gal(b1-4)GlcNAc(b1-2)[Neu5Ac(a2-3)Gal(b1-4)GlcNAc(b1-6)]Man(a1-6)]Man(b1-4)GlcNAc(b1-4)GlcNAc
# Method in brief: as §1
# [3] = molecular target: Neu5Ac(a2-3)Gal(b1-4)GlcNAc(b1-2)[Neu5Ac(a2-3)Gal(b1-4)GlcNAc(b1-4)]Man(a1-3)[GlcNAc(b1-4)][Neu5Ac(a2-3)Gal(b1-4)GlcNAc(b1-4)Man(a1-6)]Man(b1-4)GlcNAc(b1-4)GlcNAc
# Method in brief: as §1
# [4] = molecular target: Neu5Ac(a2-3)Gal(b1-4)GlcNAc(b1-2)[Neu5Ac(a2-3)Gal(b1-4)GlcNAc(b1-6)]Man(a1-6)[Neu5Ac(a2-3)Gal(b1-4)GlcNAc(b1-2)Man(a1-3)][GlcNAc(b1-4)]Man(b1-4)GlcNAc(b1-4)GlcNAc
# Method in brief: as §1
# [5] = molecular target: Neu5Ac(a2-3)Gal(b1-4)GlcNAc(b1-3)Gal
# Method in brief: as §1
# [6] = molecular target: Neu5Ac(a2-3)Gal(b1-4)GlcNAc(b1-3)Gal(b1-3)GlcNAc
# Method in brief: as §1
# [7] = molecular target: Neu5Ac(a2-3)Gal(b1-4)GlcNAc(b1-3)Gal(b1-4)GlcNAc
# Method in brief: as §1
# [8] = molecular target: Neu5Ac(a2-3)Gal(b1-4)GlcNAc(b1-3)Gal(b1-4)GlcNAc(b1-2)Man(a1-3)[Neu5Ac(a2-3)Gal(b1-4)GlcNAc(b1-3)Gal(b1-4)GlcNAc(b1-2)Man(a1-6)]Man(b1-4)GlcNAc(b1-4)GlcNAc
# Method in brief: as §1
# [9] = molecular target: Neu5Ac(a2-3)Gal(b1-4)GlcNAc(b1-3)Gal(b1-4)GlcNAc(b1-3)Gal(b1-4)GlcNAc
# Method in brief: as §1
# [10] = molecular target: Neu5Ac(a2-3)Gal(b1-4)GlcNAc(b1-3)Gal(b1-4)GlcNAc(b1-3)Gal(b1-4)GlcNAc(b1-2)Man(a1-3)[Neu5Ac(a2-3)Gal(b1-4)GlcNAc(b1-3)Gal(b1-4)GlcNAc(b1-3)Gal(b1-4)GlcNAc(b1-2)Man(a1-6)]GalNAc
# Method in brief: as §1
# [11] = molecular target: Neu5Ac(a2-3)Gal(b1-4)GlcNAc(b1-3)Gal(b1-4)GlcNAc(b1-3)GalNAc
# Method in brief: as §1
# [12] = molecular target: Neu5Ac(a2-3)Gal(b1-4)GlcNAc(b1-3)Gal(b1-4)GlcNAc(b1-3)[Neu5Ac(a2-3)Gal(b1-4)GlcNAc(b1-3)Gal(b1-4)GlcNAc(b1-6)]GalNAc
# Method in brief: as §1
# [13] = molecular target: Neu5Ac(a2-3)Gal(b1-4)GlcNAc(b1-3)Gal(b1-4)GlcNAc(b1-6)[Gal(b1-3)]GalNAc
# Method in brief: as §1
# [14] = molecular target: Neu5Ac(a2-3)Gal(b1-4)GlcNAc(b1-3)Gal(b1-4)[Fuc(a1-3)]GlcNAc
# Method in brief: as §1
# [15] = molecular target: Neu5Ac(a2-3)Gal(b1-4)GlcNAc(b1-3)GalNAc
# Method in brief: as §1
# [16] = molecular target: Neu5Ac(a2-3)Gal(b1-4)GlcNAc(b1-3)[Neu5Ac(a2-3)Gal(b1-4)GlcNAc(b1-6)]GalNAc
# Method in brief: as §1
# [17] = molecular target: Neu5Ac(a2-3)Gal(b1-4)GlcNAc(b1-6)GalNAc
# Method in brief: as §1
# [18] = molecular target: Neu5Ac(a2-3)Gal(b1-4)GlcNAc(b1-6)[Gal(b1-3)]GalNAc
# Method in brief: as §1
# [19] = molecular target: Neu5Ac(a2-3)Gal(b1-4)GlcNAc(b1-6)[Neu5Ac(a2-3)Gal(b1-3)]GalNAc
# Method in brief: as §1
# [20] = molecular target: Neu5Ac(a2-3)Gal(b1-4)GlcNAc6S
# Method in brief: as §1
# [21] = molecular target: Neu5Ac(a2-3)Gal(b1-4)[Fuc(a1-3)]GlcNAc
# Method in brief: as §1
# [22] = molecular target: Neu5Ac(a2-3)Gal(b1-4)[Fuc(a1-3)]GlcNAc(b1-2)Man
# Method in brief: as §1
# [23] = molecular target: Neu5Ac(a2-3)Gal(b1-4)[Fuc(a1-3)]GlcNAc(b1-3)Gal
# Method in brief: as §1
# [24] = molecular target: Neu5Ac(a2-3)Gal(b1-4)[Fuc(a1-3)]GlcNAc(b1-3)Gal(b1-4)GlcNAc
# Method in brief: as §1
# [25] = molecular target: Neu5Ac(a2-3)Gal(b1-4)[Fuc(a1-3)]GlcNAc(b1-3)Gal(b1-4)[Fuc(a1-3)]GlcNAc(b1-3)Gal(b1-4)[Fuc(a1-3)]GlcNAc
# Method in brief: as §1
# [26] = molecular target: Neu5Ac(a2-3)Gal(b1-4)[Fuc(a1-3)]GlcNAc(b1-3)GalNAc
# Method in brief: as §1
# [27] = molecular target: Neu5Ac(a2-3)Gal(b1-4)[Fuc(a1-3)]GlcNAc(b1-6)[Gal(b1-3)]GalNAc
# Method in brief: as §1
# [28] = molecular target: Neu5Ac(a2-3)Gal(b1-4)[Fuc(a1-3)]GlcNAc(b1-6)[Neu5Ac(a2-3)Gal(b1-3)]GalNAc
# Method in brief: as §1
# [29] = molecular target: Neu5Ac(a2-3)Gal(b1-4)[Fuc(a1-3)]GlcNAc6S
# Method in brief: as §1
# [30] = molecular target: Neu5Ac(a2-3)Gal6S(b1-4)GlcNAc
# Method in brief: as §1
# [31] = molecular target: Neu5Ac(a2-3)Gal6S(b1-4)[Fuc(a1-3)]GlcNAc
# Method in brief: as §1
# Neu5Ac(a2-3)GalNAc = molecular target: Neu5Ac(a2-3)GalNAc
# Method in brief: as §1
# [32] = molecular target: Neu5Ac(a2-3)GalNAc(b1-4)GlcNAc
# Method in brief: as §1
# [33] = molecular target: Neu5Ac(a2-3)[GalNAc(b1-4)]Gal(b1-4)Glc
# Method in brief: as §1
# [34] = molecular target: Neu5Ac(a2-3)[GalNAc(b1-4)]Gal(b1-4)GlcNAc
# Method in brief: as §1
# [35] = molecular target: Neu5Ac(a2-3)[GalNAc(b1-4)]Gal(b1-4)GlcNAc(b1-3)GalNAc
# Method in brief: as §1
# [36] = molecular target: Neu5Ac(a2-3)[Neu5Ac(a2-6)]GalNAc
# Method in brief: as §1
# Neu5Ac(a2-6)Gal = molecular target: Neu5Ac(a2-6)Gal
# Method in brief: as §1
# [37] = molecular target: Neu5Ac(a2-6)Gal(b1-3)GlcNAc(b1-3)[Gal(b1-4)GlcNAc(b1-6)]Gal(b1-4)Glc
# Method in brief: as §1
# Neu5Ac(a2-6)Gal(b1-4)Glc = molecular target: Neu5Ac(a2-6)Gal(b1-4)Glc
# Method in brief: as §1
# [38] = molecular target: Neu5Ac(a2-6)Gal(b1-4)GlcNAc
# Method in brief: as §1
# [39] = molecular target: Neu5Ac(a2-6)Gal(b1-4)GlcNAc(b1-2)Man
# Method in brief: as §1
# [40] = molecular target: Neu5Ac(a2-6)Gal(b1-4)GlcNAc(b1-2)Man(a1-3)Man(b1-4)GlcNAc(b1-4)GlcNAc
# Method in brief: as §1
# [41] = molecular target: Neu5Ac(a2-6)Gal(b1-4)GlcNAc(b1-2)Man(a1-3)[Gal(b1-4)GlcNAc(b1-2)Man(a1-6)]Man(b1-4)GlcNAc(b1-4)GlcNAc
# Method in brief: as §1
# [42] = molecular target: Neu5Ac(a2-6)Gal(b1-4)GlcNAc(b1-2)Man(a1-3)[GlcNAc(b1-2)Man(a1-6)]Man(b1-4)GlcNAc(b1-4)GlcNAc
# Method in brief: as §1
binder,measurement,setting,value
Mg1lysM (Mycosphaerella graminicola) (protein) QRNPITITPQFDCGATNSQQYVARSGDTLTKIAQEIYHDVVGVCDIARANNLADPNRIDAGTPYTIPINCQTYDRNSCL,glycan array binding signal (z-score),[1],-0.073
same,glycan array binding signal (z-score),[2],-0.082
same,glycan array binding signal (z-score),[3],-0.088
same,glycan array binding signal (z-score),[4],-0.074
same,glycan array binding signal (z-score),[5],-0.066
same,glycan array binding signal (z-score),[6],-0.08
same,glycan array binding signal (z-score),[7],-0.072
same,glycan array binding signal (z-score),[8],-0.062
same,glycan array binding signal (z-score),[9],-0.064
same,glycan array binding signal (z-score),[10],-0.071
same,glycan array binding signal (z-score),[11],-0.077
same,glycan array binding signal (z-score),[12],-0.073
same,glycan array binding signal (z-score),[13],-0.068
same,glycan array binding signal (z-score),[14],-0.09
same,glycan array binding signal (z-score),[15],-0.081
same,glycan array binding signal (z-score),[16],0.001
same,glycan array binding signal (z-score),[17],-0.063
same,glycan array binding signal (z-score),[18],-0.093
same,glycan array binding signal (z-score),[19],-0.062
same,glycan array binding signal (z-score),[20],-0.075
same,glycan array binding signal (z-score),[21],-0.073
same,glycan array binding signal (z-score),[22],-0.075
same,glycan array binding signal (z-score),[23],-0.079
same,glycan array binding signal (z-score),[24],-0.052
same,glycan array binding signal (z-score),[25],-0.047
same,glycan array binding signal (z-score),[26],-0.048
same,glycan array binding signal (z-score),[27],-0.059
same,glycan array binding signal (z-score),[28],-0.059
same,glycan array binding signal (z-score),[29],-0.092
same,glycan array binding signal (z-score),[30],-0.067
same,glycan array binding signal (z-score),[31],-0.078
same,glycan array binding signal (z-score),Neu5Ac(a2-3)GalNAc,-0.074
same,glycan array binding signal (z-score),[32],-0.088
same,glycan array binding signal (z-score),[33],-0.075
same,glycan array binding signal (z-score),[34],-0.083
same,glycan array binding signal (z-score),[35],-0.068
same,glycan array binding signal (z-score),[36],-0.086
same,glycan array binding signal (z-score),Neu5Ac(a2-6)Gal,-0.073
same,glycan array binding signal (z-score),[37],-0.091
same,glycan array binding signal (z-score),Neu5Ac(a2-6)Gal(b1-4)Glc,-0.085
same,glycan array binding signal (z-score),[38],-0.072
same,glycan array binding signal (z-score),[39],-0.057
same,glycan array binding signal (z-score),[40],-0.074
same,glycan array binding signal (z-score),[41],-0.067
same,glycan array binding signal (z-score),[42],-0.054
